In all, about 1,400 sequences were measured (“thermal melting temperature (Tm) of peptide-HLA complex”: median about 60, lowest 2% from about 45 on). Some of the results follow.
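Also: cell lysates heated 10 min at 37–73 °C, remaining pHLA pulled down with pan-class I antibody, peptides quantified by DIA-MS versus 37 °C, Tm where half the complex is lost.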

For the test, the target named is HLA-B*07:02. Nature of the test: thermal melting temperature (Tm) of peptide-HLA complex; higher = more thermostable pHLA complex. The settings on record: C1R-B*07:02.
Sequence GPHVPFTVF had a thermal melting temperature of 62.3 °C.
Sequence KPGMKLTEL showed a thermal melting temperature of 46.7 °C.
On to YPPNPWREI, for which the thermal melting temperature was 59.3 °C.
Next, YPRTGGTL: 55.6 °C.
On to APRVLQQTL, for which the thermal melting temperature stood at 61.2 °C.
MPKLRVLEL had a thermal melting temperature of 57.1 °C.
Sequence RPALPGLAR gave a thermal melting temperature of 62.5 °C.
For LPGLRDLVL the value was 61.7 °C; for LPKATILDL, 61.6 °C; for YPFKPPKVAF, 58.5 °C.
Consider SPLNRAGLL, for which the thermal melting temperature stood at 59.8 °C.
For HPNSNLLDL the value was 58.7 °C.
Next, AARPVPWNAL: 59.2 °C.
Take GPLGSTIPM: the thermal melting temperature came to 61.6 °C.
In the case of FPQMGRFTL, the thermal melting temperature is 57.4 °C.
Take APVAPHFAL: the thermal melting temperature was 62.1 °C.
With SPASRSISL, the thermal melting temperature was 61 °C.
For RPAPAAPLL the value was 61.1 °C.
Turning to KPRDVSSVEL, the thermal melting temperature is 59.8 °C.
Next, RPAPLVQQL: 58.3 °C.
For SPYFQRPLAL the value was 60.8 °C; for VPVGPHLSL, 60.8 °C.
SPKSPTAAL registered a thermal melting temperature of 60.1 °C.
With IPRGADNLVAI, the thermal melting temperature amounted to 61.8 °C.
Next, RPAQVSQPF: 60.2 °C; APKPGGLSL: 61.7 °C.
APRFSSAVGL displayed a thermal melting temperature of 61.7 °C.
Regarding RPPEVILEL, the thermal melting temperature was 62.1 °C.
On to IPRLIVSQL, for which the thermal melting temperature was determined as 62.5 °C.
Take VPRPPSLLATL: the thermal melting temperature turned out to be 62.9 °C.
Next, LPSNARGPIL: 56.6 °C.
For LPSKPYSTL the value was 59.2 °C.
QPYAFTTKSL came in with a thermal melting temperature of 57.6 °C.
For APRVLSFSL, the thermal melting temperature turned out to be 62 °C.
With IPALRDISI, the thermal melting temperature was 62.6 °C.
Next, KPASFMTSI: 59.7 °C.
